# According to the supplement of paper PMC11417369:
# ± gives the standard deviation of the averaged measurements. This is one part of the list.
# Test system: PfAP2-EXP AP2 domain (GST-tagged)
# Experiment: gcPBM binding intensity (ln(normalized median fluorescence intensity)); higher = stronger DNA binding
# In short: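 An Agilent 4 × 180k array of primer-extended double-stranded 36-bp intergenic genomic probes, with negative controls, was incubated for 1 h with GST-tagged P. falciparum DNA-binding domains expressed in E. coli. Alexa488 anti-GST antibody detected bound protein, scanned at 488 nm. Binding intensity is the highest Masliner-normalised natural-log median intensity across replicate spots of either probe orientation.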
row,Sequence,gcPBM binding intensity (ln)
1,AATAAAATATAAGGGGGTACGGAGAAAGGATACTAT [XGTACX_site7733],9.17 ± 0.38
2,TTATATAAGATATTTCGTACACATTCAAAAATTATG [XGTACX_site7375],8.35 ± 0.37
3,AAAAAAAAAAAAAAAAGTACATATATTATATATATA [XGTACX_site2983],8.9 ± 0.099
4,CATACACCCCAACACACACACACACCCATATATAAT [CACACA_site8097],8.82 ± 0.66
5,GTGCAATATTTATTTTGTACATATTTATCAATAAAC [XGTACX_site8297],8.36 ± 0.2
6,TTATATTTTTACAAGAGTACATATATATATATATAT [XGTACX_site5383],10.2 ± 0.31
7,TCAAACCAGTTGATGTGTACACATATAGTAATAATT [XGTACX_site6014],8.79 ± 0.38
8,TTTATTTGATGAACATGTACAAAAAAACAAAGAACA [XGTACX_site823],8.83 ± 0.31
9,ATTAAATATATTAAATGTACATAATATATATATATA [XGTACX_site5032],10 ± 0.23
10,ACATCGATTTATATTCTGCACTGAAGAAACTACAAC [GTGCAC_site9967],8.78 ± 0.13
11,ATAAAAATAAAATGGACACACATATATACCTATTTG [CACACA_site5761],8.5 ± 0.34
12,TGATATTTTATTATTAAAATATATACATATATATAT [CACACA_negctrl_site1456],9.455 ± 0.007
13,AAGAAAAAAAAAAAAAAAGATACTTTTTTAAAACTA [TGCATGCA_negctrl_site13],8.11 ± 0.73
14,TTGCACAGATTAATCAAAAATTTTAAACCAAATATA [XGTACX_negctrl_site38],8.56 ± 0.45
15,TATTTACACAAAATAAAATATATTATATATATATAT [TGCATGCA_negctrl_site381],9.7 ± 0.35
16,AGAATAGAATAAAAAACACACATTTACAACATTATT [CACACA_site3894],8.54 ± 0.52
17,TATATGGAGAGATATGCACACTGTATGAATGCCCCC [CACACA_site8853],10.3 ± 0.33
18,TATTTATACATAGGTGGTACTACTTTAAACAAAAAA [XGTACX_site5062],8.68 ± 0.4
19,AAATAAATAATATTCACACATAAAAAAAATGGAGTT [CACACA_site4525],8.44 ± 0.45
20,TTTATTCCAGTATTCACACACGAATAACCACATAAC [CACACA_site5104],8.68 ± 0.25
21,TGTATTTATAGCAATACACACATAACAATAAATATA [CACACA_site3328],8.27 ± 0.071
22,TATATAAGAGGAAAAAGTACAGAAAAACAAAGAGAA [XGTACX_site2926],9.29 ± 0.45
23,CTATACATATTATATAGTACTTTATTATTATGACTA [XGTACX_site1382],8.45 ± 0.36

row,Sequence,gcPBM binding intensity (ln)
1,ATAATTCTTTATTATAGTACACAAACTTTCAAAACA [XGTACX_site3597],8.45 ± 0.27
2,AAAAAAGAGGGATACACACAAACATATATATATATA [CACACA_site2243],10.1 ± 0.33
3,AAGAAAATATAAATATGTACTTAATAATTTATTTAT [XGTACX_site8100],8.16 ± 0.37
4,TTTATATCTTATTATAGGAAAATGAATATTTTCTCT [TGCATGCA_negctrl_site478],8.19 ± 0.36
5,ACAAAACATATATTCTGTACATATATAATGGTGACT [XGTACX_site6796],8.67 ± 0.3
6,TATTAAAATAACATACGTACATAAGTATATAAAAAA [XGTACX_site1769],8.55 ± 0.21
7,AGGATACACGGACACACACACATATATATATATATA [CACACA_site4654],10.2 ± 0.28
8,AAAATAAAAAGAAATTGTACGTATAATAATATATTT [XGTACX_site7593],8.72 ± 0.47
9,TTTATTTTAAAATTTACACACAAAAGGATTTATAGA [CACACA_site2338],8.38 ± 0.45
10,TATATTAATTAACAGTGTACAAAAAAAAATAAAAAA [XGTACX_site3702],8.82 ± 0.42
11,TGTATAAATAAATGCGTACACACTAATAAAAAAAAA [CACACA_site858],8.59 ± 0.49
12,AAAAAAAATATGATGAGTACACAATAATACATGCAA [XGTACX_site6999],9.14 ± 0.16
13,CAACTTTTTGAAAATTGTACATGACATATATATATA [XGTACX_site260],10 ± 0.35
14,TTATGTAAATAATTTTGTACTTAAATTATTATATAA [XGTACX_site1491],8.08 ± 0.4
15,AATATCTAAAATGTGTGTACATAATATTTTTAATAT [XGTACX_site3831],8.3 ± 0.27
16,GTGGTTATATATTAAGTGCATATTATAATTTTAAAC,8.6 ± 0.085
17,ATAGATAAAAAATTATTTATTTAGAATTTTTATGTA [CACACA_negctrl_site400],7.91 ± 0.32
18,TGTCTTTATATATATTTATTTTTTAGTATTACATAA [CACACA_negctrl_site21],8.43 ± 0.27
19,ATGGAATATTTCATGATTTTTTTAATTTTTTTATTG [XGTACX_negctrl_site55],8.1 ± 0.53
20,TATCTTTTTTTTAATACACACAAATTTATGAAAGTA [CACACA_site7879],8.38 ± 0.33
21,ATTTTCATATTTTTATGTACATATTATAAGAATATA [XGTACX_site3691],8.61 ± 0.42
22,TTCGTTAAAAATAAATGTACATAAATAAACCTTATT [XGTACX_site621],8.39 ± 0.33
23,ATTTTAATAAACACTTACATGTTTTCCAAATTGTAT [CACACA_negctrl_site1807],8.41 ± 0.3

row,Sequence,gcPBM binding intensity (ln)
1,ATATTAAGAATGTATACATGCATATATATATAGTAC [TGCATGCA_site219],9.17 ± 0.42
2,TATTAATAAATATGTTTACACACGAAAATACATTTT [CACACA_site1012],8.45 ± 0.54
3,AAAGATTTAGAAAATGAACACACGAGCACCCACCGA [CACACA_site1017],9.21 ± 0.54
4,GAAAGAGAGATATATACACACATATTTATATTTTTA [CACACA_site7057],8.18 ± 0.48
5,AAAAGTCTCTTTTTAGTGCACATTTTATTTAAATAT,8.83 ± 0.27
6,CAGATAAGGTGAAGCTGTACAAAAATGTTTTATAAC [XGTACX_site6783],8.74 ± 0.4
7,TCTAATTATCACATTGCACACACATTTCCTTTTACA [CACACA_site9140],8.92 ± 0.33
8,TAATTAATTTATGTAACACACATTGTTGATTCAATA [CACACA_site1098],8.56 ± 0.43
9,TTATACTGTATAGTCGCACACAAAAATATAAAATAT [CACACA_site3869],8.71 ± 0.47
10,AATACACCCAGACACACACACAAAAAAAAAAAAAAA [CACACA_site513],8.12 ± 0.43
11,AAAAGAGAAATGGGCACACACACACCGATTATATAT [CACACA_site4942],8.88 ± 0.53
12,TTTGAATCCTTATATACACACATTATGTAATATTAT [CACACA_site561],8.5 ± 0.35
13,ATATATATATTAAATACACACATTTTTGATTAGGTT [CACACA_site3119],9.405 ± 0.078
14,AATATAAAAATGTTTACACACACACCCAAATATATT [CACACA_site2511],8.91 ± 0.45
15,AGAATTACTTAAAAAAGTACATAAAATTATTTAAAA [XGTACX_site2205],8.18 ± 0.31
16,ATTACATTTTTAATGCGTACTAAAAATGTATATAAG [XGTACX_site6384],8.59 ± 0.38
17,TTATTATCTCTTGTCATTATTATATACTAAGAAGTA [CACACA_negctrl_site410],8.53 ± 0.47
18,AATATGAAATATATTACACACATTTATATGTTGAAA [CACACA_site1427],8.22 ± 0.36
19,AAAAGGAAAATACTAGCACACAATATATAATAAACA [CACACA_site285],8.73 ± 0.6
20,ATATTGTAAGTAAAATGTAATAAATATAATAAAATA [CACACA_negctrl_site697],8.6 ± 0.4
21,TTAGTATATACATTTGCACACATTATTTTTTAACAT [CACACA_site2618],8.98 ± 0.4
22,TCCTTGCATTTTAAAACACACAAAAATTAATTGTTA [CACACA_site7152],8.55 ± 0.32
23,TTTCTAATTATTTCCCTTCAAATATATTAATATCGT [CACACA_negctrl_site429],8.6 ± 0.42

row,Sequence,gcPBM binding intensity (ln)
1,TAAAAATGTGGACACACACACATATATATATTTAAT [CACACA_site4941],8.67 ± 0.28
2,ATATATATTATTATATGTACATATAAATATATTAAT [XGTACX_site5270],8.43 ± 0.16
3,TTCATATAATTATATACATGCATAAATTCTAAGTAA [TGCATGCA_site622],8.65 ± 0.24
4,TTCATATATTATTATGCATGTTCATAAATTATCTAA [TGCATGCA_site896],8.7 ± 0.26
5,ATTTTATAAACAAATGAACACACAAACATATATATA [CACACA_site9036],8.76 ± 0.52
6,TACATACATAAACACACACACACATATATATATATA [CACACA_site8953],10.1 ± 0.35
7,ACCCATTCAAATTTCGCACACACATACAAAAAAAAA [CACACA_site3094],8.79 ± 0.32
8,CATTAATGACATGATTGTACATAAGCTTTTTTACAT [XGTACX_site1888],9.01 ± 0.45
9,ATTTGTGTATATTAGAGTACATAAAATTAGAGGAAC [XGTACX_site1654],9.11 ± 0.25
10,ATCAAAAGAAAACACACACACATACATATATATATA [CACACA_site3795],9.81 ± 0.28
11,TATTTAAAAATAAAATGTACATATTATTATGCATTA [XGTACX_site1303],8.44 ± 0.18
12,TTACATATTTATGATTGTACACATTTATAAACAATA [XGTACX_site2190],8.37 ± 0.2
13,TTAATATTGTTATAGCGTACAAATAAACATATTAAA [XGTACX_site8153],8.49 ± 0.33
14,TGATTCTAACTTATGGTGCAACATTATGGACACCGT,8.84 ± 0.042
15,AAAAGCTATAAAAATCGGTAATTTATAACAGGAATT [CACACA_negctrl_site469],8.57 ± 0.4
16,AATGTTAAGGAGGGGAGTACATAAAATTCTCTCTCC [XGTACX_site1990],8.56 ± 0.35
17,ATTATGTACTATTATACACACGTTTAATTGTAAATT [CACACA_site4278],8.6 ± 0.31
18,ATTATACACGCGCGCACACACAACAAAAAAAAAAAA [CACACA_site7630],8.56 ± 0.4
19,ATAATAATAAAGTGAACACACACATATAATATATAT [CACACA_site9378],8.62 ± 0.35
20,TAAATAAACAAATTAACACACAGAATTTTTTTTTTC [CACACA_site1674],8.19 ± 0.35
